{"source": "patent US20210147571A1", "about": "“MONOCLONAL ANTIBODY TARGETING HUMAN TUMOR STEM CELLS AND USE THEREOF” (Suzhou Bojuhua Biomedical Technology Co. Ltd, priority 2017, published 2021)", "key": {"Bel7402-V13 cells": {"test_system": "Bel7402-V13 cells", "experiment": "flow immunofluorescence, positive cells in parental and sphere cells", "type": "binding, human", "details": "BEL7402 V13, Table 32", "experimental": "(§1) The human liver cancer cell line Bel7402-V13 and MHCC97L cells were cultured for 5 days in a serum-free manner, and the Hetumomab^+ cells in the parental cells and in the cells from sphere culture were detected by viable cell flow fluorescence cytometry. […] That is, after serum-free culture, Hetumomab^+ cells of the liver cancer cell line were enriched.\n(§2) As described above, four cell lines, SNU-5, BGC-823, MHCC-97L, and BEL7402 V13, were used to harvest both parental cells and tumor-stem-cell-rich sphere cells. […] The results are as follows:\n(§3) According to the aforementioned method, four cell lines, SNU-5, BGC-823, MHCC-97L, and BEL7402 V13, were used to harvest both parental cells and tumor-stem-cell-rich sphere cells. […]"}, "MHCC97L cells": {"test_system": "MHCC97L cells", "experiment": "flow immunofluorescence, positive cells in parental and sphere cells", "type": "binding, human", "details": "MHCC-97L, Table 32", "experimental": "as §1, §2, §3"}, "BGC-823 cells": {"test_system": "BGC-823 cells", "experiment": "flow immunofluorescence, positive cells in parental and sphere cells", "type": "binding, human", "details": "BGC-823, Table 32", "experimental": "as §1, with “gastric” for “liver”, “SNU-5” for “Bel7402-V13”, “BGC-823” for “MHCC97L”, “after the” for “after”\nas §2, §3"}, "SNU-5 cells": {"test_system": "SNU-5 cells", "experiment": "flow immunofluorescence, positive cells in parental and sphere cells", "type": "binding, human", "details": "SNU-5, Table 32", "experimental": "as §1, with “gastric” for “liver”, “SNU-5” for “Bel7402-V13”, “BGC-823” for “MHCC97L”, “after the” for “after”\nas §2, §3"}, "BGC-823 sphere cells": {"test_system": "BGC-823 sphere cells", "experiment": "sphere-forming inhibition (self-renewal)", "type": "cell-based, human", "details": "Table 33", "experimental": "(§4) The main manifestation of the self-renewal ability of tumor stem cells is the ability to form spheres in serum-free medium, which is called asymmetric division, that is, when one cell divides into two daughter cells, one of the daughter cells maintains the same features as the parental cell, while the other daughter cell may continue to divide, forming normal daughter cells. […] And then Hetumomab (250 μg/mL) was used as the experimental group, and the PBS was used as a negative control group to incubate with the cells at 37° C. for 2 h, during which the cells were mixed with the antibody or the negative control once every half an hour. 500 cells in each group were inoculated into a semi-solid sphere medium (containing EGF, LIF, bFGF, etc.) containing 0.8% methylcellulose, and cultured in an ultra-low adhesion 24-well plate. 1-1.5 mL liquid medium was added every other day, and the number of spheres formed from the two groups was observed after 14 days."}, "Bel7402-V13 sphere cells": {"test_system": "Bel7402-V13 sphere cells", "experiment": "sphere-forming inhibition (self-renewal)", "type": "cell-based, human", "details": "Table 33", "experimental": "as §4"}, "MHCC-97L sphere cells": {"test_system": "MHCC-97L sphere cells", "experiment": "sphere-forming inhibition (self-renewal)", "type": "cell-based, human", "details": "Table 33", "experimental": "as §4"}, "SNU-5 sphere cells": {"test_system": "SNU-5 sphere cells", "experiment": "sphere-forming inhibition (self-renewal)", "type": "cell-based, human", "details": "Table 33", "experimental": "as §4"}, "[1]": {"test_system": "Bel7402-V13 transplanted tumor", "experiment": "human liver cancer transplanted tumor treated with Hetuzumab H5L11", "type": "in vivo, nude mice", "experimental": "Specifically, the sphere cells of the human liver cancer cell line Bel7402-V13 were harvested and inoculated subcutaneouly into nude mice at 30000 cells/mouse. […] The antibody treatments were started on the second day after inoculation of cancer cells. The experimental group and the control group were treated by intraperitoneal injection. The antibody treatments were performed for 36 days. The chemotherapeutic drug group was treated for 4 weeks, twice a week. The major and minor diameters of the subcutaneously transplanted tumor were measured twice a week. The tumor volume was calculated with the formula V=(π/6)×(major diameter×minor diameter×minor diameter). The change in tumor volume in each group was observed."}, "[2]": {"test_system": "Hetumomab target antigen in liver, lung, gastric cancer tissue sections", "experiment": "immunohistochemistry of antigen-positive and negative tissue sections", "type": "binding, human", "details": "Example 11"}, "[3]": {"test_system": "Hetumomab target antigen on cells", "experiment": "cell ELISA affinity of humanized chain versions", "type": "binding, human", "details": "heavy chain version combined with L11", "excerpt": "Based on the H1 heavy chain sequence, two other heavy chain mutants were designed as initial humanization: H2 and H3. The degree of humanization of these versions was in descending order. […] Since H1 was the most humanized version in which the framework regions were all humanized, H1 was finally determined as the preferred humanization molecular template.\nBased on the L1 with fully humanized FR region, L2 and L3 were designed, and the degree of humanization of the three version was also in descending order. […] In order to find out which key amino acids were mutated during humanization, back mutations were performed, and nine different mutants (L4-L12) were prepared.\nTherefore, L6, L11, and L12 were finally selected for optimization screening of the best light chain humanized version.\nHowever, glycosylated isomers of Hetuzumab H1 heavy chain were confirmed by antibody sequence analysis and reductive electrophoresis analysis. In the analysis of H1 heavy chain expression products by electrophoresis, H1L6, H1L11, and H1L12 were all shown with weak sub-bands visible below the main band of the heavy chain. […] This may cause serious quality problems of uniformity, which is very unfavorable for drug development. […] H4 and H5 were combined with L11, respectively, and analyzed by electrophoresis after expression. […]"}, "[4]": {"details": "BEL7402 V13, antibody 160 ug/ml"}}}
{"molecule": "Hetuzumab H5L11: humanized antibody, heavy chain SEQ ID NO:36 and light chain SEQ ID NO:47 (antibody, Humanized heavy chain H5; Humanized light chain L11) heavy: QVTLKESGPTLVKPTQTLTLTCTFSGFSLSTSGMGVSWIRQPPGKALEWLAHIYWDDDKRYNPSLKSRLTISKDTSKNQVVLTMTNMDPVDTATYYCARSFYYYAANSFAYWGQGTLVTVSS[human IgG1 constant region left out here] light: DIVMTQTPFSNPVTLGQPASISCRSSKSLLHSNGITYLYWFLQKPGQSPQLLIYQMSNLASGVPDRFSGSGSGTDFTLKISRVEAEDVGVYYCAQNLELYTFGQGTKVEIKRTVAAPSVFIFPPSDEQLKSGTASVVCLLNNFYPREAKVQWKVDNALQSGNSQESVTEQDSKDSTYSLSSTLTLSKADYEKHKVYACEVTHQGLSSPVTKSFNRGEC", "values": [{"measurement": "positive rate, Parent", "setting": "Bel7402-V13 cells", "result": 6.94, "unit": "%"}, {"measurement": "positive rate, Sphere", "setting": "Bel7402-V13 cells", "result": 11.31, "unit": "%"}, {"measurement": "positive rate, Parent", "setting": "MHCC97L cells", "result": 6.85, "unit": "%"}, {"measurement": "positive rate, Sphere", "setting": "MHCC97L cells", "result": 14.66, "unit": "%"}, {"measurement": "positive rate, Parent", "setting": "BGC-823 cells", "result": 3.39, "unit": "%"}, {"measurement": "positive rate, Sphere", "setting": "BGC-823 cells", "result": 5.42, "unit": "%"}, {"measurement": "positive rate, Parent", "setting": "SNU-5 cells", "result": 3.59, "unit": "%"}, {"measurement": "positive rate, Sphere", "setting": "SNU-5 cells", "result": 5.92, "unit": "%"}, {"measurement": "Average number of formed spheres", "setting": "BGC-823 sphere cells; BGC-823, antibody 10 ug/ml", "result": 225}, {"measurement": "Inhibition Rate (%)", "setting": "BGC-823 sphere cells; BGC-823, antibody 10 ug/ml", "result": 11.1, "unit": "%"}, {"measurement": "Average number of formed spheres", "setting": "BGC-823 sphere cells; BGC-823, antibody 20 ug/ml", "result": 198}, {"measurement": "Inhibition Rate (%)", "setting": "BGC-823 sphere cells; BGC-823, antibody 20 ug/ml", "result": 21.7, "unit": "%"}, {"measurement": "Average number of formed spheres", "setting": "BGC-823 sphere cells; BGC-823, antibody 40 ug/ml", "result": 188}, {"measurement": "Inhibition Rate (%)", "setting": "BGC-823 sphere cells; BGC-823, antibody 40 ug/ml", "result": 25.7, "unit": "%"}, {"measurement": "Average number of formed spheres", "setting": "BGC-823 sphere cells; BGC-823, antibody 80 ug/ml", "result": 155}, {"measurement": "Inhibition Rate (%)", "setting": "BGC-823 sphere cells; BGC-823, antibody 80 ug/ml", "result": 38.7, "unit": "%"}, {"measurement": "Average number of formed spheres", "setting": "BGC-823 sphere cells; BGC-823, antibody 160 ug/ml", "result": 135}, {"measurement": "Inhibition Rate (%)", "setting": "BGC-823 sphere cells; BGC-823, antibody 160 ug/ml", "result": 46.6, "unit": "%"}, {"measurement": "Average number of formed spheres", "setting": "Bel7402-V13 sphere cells; BEL7402 V13, antibody 10 ug/ml", "result": 205}, {"measurement": "Inhibition Rate (%)", "setting": "Bel7402-V13 sphere cells; BEL7402 V13, antibody 10 ug/ml", "result": 10.9, "unit": "%"}, {"measurement": "Average number of formed spheres", "setting": "Bel7402-V13 sphere cells; BEL7402 V13, antibody 20 ug/ml", "result": 191}, {"measurement": "Inhibition Rate (%)", "setting": "Bel7402-V13 sphere cells; BEL7402 V13, antibody 20 ug/ml", "result": 17.0, "unit": "%"}, {"measurement": "Average number of formed spheres", "setting": "Bel7402-V13 sphere cells; BEL7402 V13, antibody 40 ug/ml", "result": 151}, {"measurement": "Inhibition Rate (%)", "setting": "Bel7402-V13 sphere cells; BEL7402 V13, antibody 40 ug/ml", "result": 34.3, "unit": "%"}, {"measurement": "Average number of formed spheres", "setting": "Bel7402-V13 sphere cells; BEL7402 V13, antibody 80 ug/ml", "result": 129.5}, {"measurement": "Inhibition Rate (%)", "setting": "Bel7402-V13 sphere cells; BEL7402 V13, antibody 80 ug/ml", "result": 43.7, "unit": "%"}, {"measurement": "Average number of formed spheres", "setting": "Bel7402-V13 sphere cells; [4]", "result": 101}, {"measurement": "Inhibition Rate (%)", "setting": "Bel7402-V13 sphere cells; [4]", "result": 56.1, "unit": "%"}, {"measurement": "Average number of formed spheres", "setting": "MHCC-97L sphere cells; antibody 10 ug/ml", "result": 212}, {"measurement": "Inhibition Rate (%)", "setting": "MHCC-97L sphere cells; antibody 10 ug/ml", "result": 12.0, "unit": "%"}, {"measurement": "Average number of formed spheres", "setting": "MHCC-97L sphere cells; antibody 20 ug/ml", "result": 190}, {"measurement": "Inhibition Rate (%)", "setting": "MHCC-97L sphere cells; antibody 20 ug/ml", "result": 21.2, "unit": "%"}, {"measurement": "Average number of formed spheres", "setting": "MHCC-97L sphere cells; antibody 40 ug/ml", "result": 160.5}, {"measurement": "Inhibition Rate (%)", "setting": "MHCC-97L sphere cells; antibody 40 ug/ml", "result": 33.4, "unit": "%"}, {"measurement": "Average number of formed spheres", "setting": "MHCC-97L sphere cells; antibody 80 ug/ml", "result": 145}, {"measurement": "Inhibition Rate (%)", "setting": "MHCC-97L sphere cells; antibody 80 ug/ml", "result": 39.8, "unit": "%"}, {"measurement": "Average number of formed spheres", "setting": "MHCC-97L sphere cells; antibody 160 ug/ml", "result": 110}, {"measurement": "Inhibition Rate (%)", "setting": "MHCC-97L sphere cells; antibody 160 ug/ml", "result": 54.4, "unit": "%"}, {"measurement": "Average number of formed spheres", "setting": "SNU-5 sphere cells; SNU-5, antibody 10 ug/ml", "result": 218}, {"measurement": "Inhibition Rate (%)", "setting": "SNU-5 sphere cells; SNU-5, antibody 10 ug/ml", "result": 11.0, "unit": "%"}, {"measurement": "Average number of formed spheres", "setting": "SNU-5 sphere cells; SNU-5, antibody 20 ug/ml", "result": 188}, {"measurement": "Inhibition Rate (%)", "setting": "SNU-5 sphere cells; SNU-5, antibody 20 ug/ml", "result": 23.3, "unit": "%"}, {"measurement": "Average number of formed spheres", "setting": "SNU-5 sphere cells; SNU-5, antibody 40 ug/ml", "result": 178}, {"measurement": "Inhibition Rate (%)", "setting": "SNU-5 sphere cells; SNU-5, antibody 40 ug/ml", "result": 27.3, "unit": "%"}, {"measurement": "Average number of formed spheres", "setting": "SNU-5 sphere cells; SNU-5, antibody 80 ug/ml", "result": 156}, {"measurement": "Inhibition Rate (%)", "setting": "SNU-5 sphere cells; SNU-5, antibody 80 ug/ml", "result": 36.3, "unit": "%"}, {"measurement": "Average number of formed spheres", "setting": "SNU-5 sphere cells; SNU-5, antibody 160 ug/ml", "result": 126}, {"measurement": "Inhibition Rate (%)", "setting": "SNU-5 sphere cells; SNU-5, antibody 160 ug/ml", "result": 48.6, "unit": "%"}, {"measurement": "Tumor Volume Inhibition Rate (%)", "setting": "[1]; High Dose 20 mg/kg i.p., day 36", "result": 47.47, "unit": "%"}, {"measurement": "Tumor Volume Inhibition Rate (%)", "setting": "[1]; High Dose, After Growth of Tumor", "result": 45.65, "unit": "%"}, {"measurement": "Tumor Volume Inhibition Rate (%)", "setting": "[1]; Low Dose 1.25 mg/kg i.p., day 36", "result": 36.80, "unit": "%"}, {"measurement": "staining of negative tissue sections", "setting": "[2]; 10 negative sections", "result": "did not stain"}, {"measurement": "staining of target antigen-positive tissue sections", "setting": "[2]; 10 positive sections", "result": "positively stain"}, {"measurement": "affinity by cell ELISA", "setting": "[3]", "result": "approximately comparable affinity"}]}
